# Laboratory results taken from the supplement of paper PMC11417369.
# The list shows a part of the results.
# Tested on: PfAP2-HC AP2 domain (GST-tagged)
# Assay: gcPBM binding intensity (ln(normalized median fluorescence intensity)); higher = stronger DNA binding
# Outline: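 Plasmodium falciparum DNA-binding domains carrying a GST tag were expressed in E. coli and applied for 1 h, at about 25 μg on average, to an Agilent 4 × 180k array. The array held primer-extended double-stranded 36-bp intergenic genomic probes together with negative controls, and binding took place in 1× PBS with 1% milk, 0.2 mg/ml BSA, 0.5% salmon testes DNA and 0.03% Triton X-100. An Alexa488 anti-GST antibody detected bound protein, and the array was scanned at 488 nm. Binding intensity is taken as the highest Masliner-normalised natural-log median intensity across replicate spots of either probe orientation.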
row,Sequence,gcPBM binding intensity (ln)
1,TTTTTTTTTTTTTTGGTGCGTTTATATATAAATATA,9.47
2,AAAATCTAATATAATGCACACATAAAAAAAAAATCA [CACACA_site8871],10.1
3,TACATCGACCTATGTACATGCAAATTATTTTTATTT [TGCATGCA_site182],9.83
4,TTGGTAATAATTTGAGGTACACTGTATAAATTTTTT [XGTACX_site909],9.54
5,ATTTTTTTGTGTTTGGTACACACGTTATAAAAAATA [CACACA_site1345],9.75
6,TTTTTTTCTTAAAGATGTACTTTTTTAAAATAATCT [XGTACX_site3663],9.36
7,AATAATAAATTATGGTGTACGCATTTGTATATATAC [XGTACX_site5417],9.74
8,TAAAAGAAATATACATGTACATAAATATATATATAT [XGTACX_site1276],9.9
9,GCCCAACCAAAATATACACACAGTTGAATGAATAAA [CACACA_site2597],9.72
10,TATATTTGGAAATATTCTCAATTGGTACAAATAAAA [CACACA_negctrl_site1202],9.27
11,GATATGTGACGTTTGGTATTTTTGATGTTGGTAGGA [CACACA_negctrl_site1448],9.97
12,TTTTGGATCATTTGTTGTACATATGCAAAAAAAAAA [XGTACX_site3157],9.45
13,AAAAAAATAAAATTATATAAAATAAATTTTTATAAT [GTGCAC_negctrl_site587],9.51
14,GGAAAATACATTCCAGTGCATTAATTTATTCAACGT,9.6
15,TATGATACATAATATACATGCATACACAACATTCAG [TGCATGCA_site487],9.79
16,ATATATATATATATTTATTCATATATTTTTTGTCTT [TGCATGCA_negctrl_site58],9.52
17,TAAAGAAACGCATCGACGCACACTACAAAATAAAAA [CACACA_site1348],9.84
18,TTTTTATTTTTTCAGTGTACATTTAAATTATCTTAT [XGTACX_site3905],9.75
19,AAATAAATACATAATACATGCATATTTAATATATAG [TGCATGCA_site135],9.84
20,GTACAATCATATACTACATGCAGTTTTTTTTATTGA [TGCATGCA_site230],9.72
21,AATTTTTTTTAATGATGTACTTTTTGAAAATAAACT [XGTACX_site4221],9.31
22,TTTTCTTTTTCTTGTACACACATAATATGGATGAAA [CACACA_site808],9.66
23,TAGATATATAAATACACACACATACACAAAAAAAAA [CACACA_site7652],10.3
24,AAATAATTTATGCATACACACATATATATATATATA [CACACA_site4020],9.89
25,TTACTTTTTTTTTTATGTACTTATATTTTTTACACT [XGTACX_site3503],10.2
